# Data reported in the supplement of paper PMC8728848.
# Some of the results follow.
# B1: PX14375F-bfa-539-21-539 (Bacteroides fragilis) (protein)
# chain: EDFLQKDPPSSPSQSVFWQKKSDFESALAGTYSVMYSGVFSQIMPCLDGLTDNAIVQHSEGTYGWAKTIAQGDLTPNQGGFVTDIYGNCYKGIARVHILMEQLDQYTGSDISADEKKFMLAQCKALRGYFYSWLYQCYKEVPVVTQSLDLNTMYQPKATRAEVLNRVMTDYDEAISELPDKLYSDSQTSGRFTVSAVKALKARILLFDAYDSNGKAISSKMEEVLTLLQSIKGYSLAARVRDNFISEKQLASPEIMFSVRFLRPNLTHSMDLYYGAWAVLDPTRNMVDAFECTDGKPWGESPLTVRPDESILYGNDDALKKAERAKMFMNRDRRLYESVNHSMMANFVDDGFKDEEVQVNESNNKGPTGFSALKYVQPTDVTPGYSTVSDADIVVLRYAHVLLMIAEAENEAHGATTTALNAINEVRTRSGQPAIEAGISQDDLRERIRNEWRIETCFEGLRYFQLKRWKLMDKRVNGVEDPAYPGYIKVYKPAFEFFPIPQSEIDKAGGVLKQDPAYE
# Assays:
# Assay in all cases: glycan array binding signal (z-score within array); higher = stronger binding
# Settings in all cases: glycan notation: IUPAC condensed, linker removed
# [1] = target: Neu5Ac(a2-6)Gal(b1-4)GlcNAc(b1-6)GalNAc
# Summary of the method: (§1)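 Columns mapping to the same glycan were averaged after glycan names were converted to IUPAC-condensed notation. The data come from 3228 arrays in the Consortium for Functional Glycomics database, limited to those with an available protein sequence. Binding is reported as a within-array Z-score averaged across arrays of one protein sequence and across linkers.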
# [2] = target: Neu5Ac(a2-6)Gal(b1-4)GlcNAc(b1-6)[Gal(b1-3)GlcNAc(b1-3)]Gal(b1-4)Glc
# Summary of the method: as §1
# [3] = target: Neu5Ac(a2-6)Gal(b1-4)GlcNAc(b1-6)[Gal(b1-3)]GalNAc
# Summary of the method: as §1
# [4] = target: Neu5Ac(a2-6)Gal(b1-4)GlcNAc6S
# Summary of the method: as §1
# Neu5Ac(a2-6)GalNAc = target: Neu5Ac(a2-6)GalNAc
# Summary of the method: as §1
# [5] = target: Neu5Ac(a2-6)GalNAc(b1-4)GlcNAc
# Summary of the method: as §1
# [6] = target: Neu5Ac(a2-6)GalNAc(b1-4)GlcNAc6S
# Summary of the method: as §1
# [7] = target: Neu5Ac(a2-6)GlcNAc(b1-4)GlcNAc
# Summary of the method: as §1
# [8] = target: Neu5Ac(a2-6)GlcNAc(b1-4)GlcNAc(b1-4)GlcNAc
# Summary of the method: as §1
# Neu5Ac(a2-8)Neu5Ac = target: Neu5Ac(a2-8)Neu5Ac
# Summary of the method: as §1
# [9] = target: Neu5Ac(a2-8)Neu5Ac(a2-3)Gal(b1-3)GalNAc(b1-4)[Neu5Ac(a2-3)]Gal(b1-4)Glc
# Summary of the method: as §1
# [10] = target: Neu5Ac(a2-8)Neu5Ac(a2-3)Gal(b1-3)GalNAc(b1-4)[Neu5Ac(a2-8)Neu5Ac(a2-3)]Gal(b1-4)Glc
# Summary of the method: as §1
# [11] = target: Neu5Ac(a2-8)Neu5Ac(a2-3)Gal(b1-4)Glc
# Summary of the method: as §1
# [12] = target: Neu5Ac(a2-8)Neu5Ac(a2-3)Gal(b1-4)GlcNAc
# Summary of the method: as §1
# [13] = target: Neu5Ac(a2-8)Neu5Ac(a2-3)[Gal(b1-3)GalNAc(b1-4)]Gal(b1-4)Glc
# Summary of the method: as §1
# [14] = target: Neu5Ac(a2-8)Neu5Ac(a2-3)[GalNAc(b1-4)]Gal(b1-4)Glc
# Summary of the method: as §1
# [15] = target: Neu5Ac(a2-8)Neu5Ac(a2-8)Neu5Ac
# Summary of the method: as §1
# [16] = target: Neu5Ac(a2-8)Neu5Ac(a2-8)Neu5Ac(a2-3)Gal(b1-4)Glc
# Summary of the method: as §1
# [17] = target: Neu5Ac(a2-8)Neu5Ac(a2-8)Neu5Ac(a2-3)[Gal(b1-3)GalNAc(b1-4)]Gal(b1-4)Glc
# Summary of the method: as §1
# [18] = target: Neu5Ac(a2-8)Neu5Ac(a2-8)Neu5Ac(a2-3)[GalNAc(b1-4)]Gal(b1-4)Glc
# Summary of the method: as §1
# [19] = target: Neu5Ac(a2-8)Neu5Ac(a2-8)Neu5Ac(a2-8)Neu5Ac(a2-3)[GalNAc(b1-4)]Gal(b1-4)Glc
# Summary of the method: as §1
# [20] = target: Neu5Ac(a2-8)Neu5Gc(a2-3)Gal(b1-4)GlcNAc
# Summary of the method: as §1
# [21] = target: Neu5Ac(b2-6)Gal(b1-4)GlcNAc
# Summary of the method: as §1
# Neu5Ac(b2-6)GalNAc = target: Neu5Ac(b2-6)GalNAc
# Summary of the method: as §1
# [22] = target: Neu5Ac9Ac(a2-3)Gal(b1-3)GlcNAc
# Summary of the method: as §1
# [23] = target: Neu5Ac9Ac(a2-3)Gal(b1-4)GlcNAc
# Summary of the method: as §1
# [24] = target: Neu5Ac9Ac(a2-6)Gal(b1-4)GlcNAc
# Summary of the method: as §1
# [25] = target: Neu5Gc(a2-3)Gal(b1-3)GlcNAc
# Summary of the method: as §1
# [26] = target: Neu5Gc(a2-3)Gal(b1-3)[Fuc(a1-4)]GlcNAc
# Summary of the method: as §1
# Neu5Gc(a2-3)Gal(b1-4)Glc = target: Neu5Gc(a2-3)Gal(b1-4)Glc
# Summary of the method: as §1
# [27] = target: Neu5Gc(a2-3)Gal(b1-4)GlcNAc
# Summary of the method: as §1
# [28] = target: Neu5Gc(a2-3)Gal(b1-4)GlcNAc(b1-3)Gal(b1-4)GlcNAc(b1-2)Man(a1-3)[Neu5Gc(a2-3)Gal(b1-4)GlcNAc(b1-3)Gal(b1-4)GlcNAc(b1-2)Man(a1-6)]Man(b1-4)GlcNAc(b1-4)GlcNAc
# Summary of the method: as §1
# [29] = target: Neu5Gc(a2-3)Gal(b1-4)[Fuc(a1-3)]GlcNAc
# Summary of the method: as §1
# [30] = target: Neu5Gc(a2-6)Gal(b1-4)GlcNAc
# Summary of the method: as §1
# Neu5Gc(a2-6)GalNAc = target: Neu5Gc(a2-6)GalNAc
# Summary of the method: as §1
# [31] = target: Neu5Gc(a2-8)Neu5Ac(a2-3)Gal(b1-4)GlcNAc
# Summary of the method: as §1
# [32] = target: Neu5Gc(a2-8)Neu5Gc(a2-3)Gal(b1-4)GlcNAc
# Summary of the method: as §1
# [33] = target: Neu5Gc(a2-8)Neu5Gc(a2-3)Gal(b1-4)GlcNAc(b1-3)Gal(b1-4)GlcNAc
# Summary of the method: as §1
binder,measurement,setting,value
B1,glycan array binding signal (z-score),[1],-0.605
same,glycan array binding signal (z-score),[2],-0.588
same,glycan array binding signal (z-score),[3],0.16
same,glycan array binding signal (z-score),[4],-0.062
same,glycan array binding signal (z-score),Neu5Ac(a2-6)GalNAc,-0.642
same,glycan array binding signal (z-score),[5],-0.662
same,glycan array binding signal (z-score),[6],-0.188
same,glycan array binding signal (z-score),[7],0.231
same,glycan array binding signal (z-score),[8],-0.585
same,glycan array binding signal (z-score),Neu5Ac(a2-8)Neu5Ac,-0.05
same,glycan array binding signal (z-score),[9],0.117
same,glycan array binding signal (z-score),[10],-0.94
same,glycan array binding signal (z-score),[11],-0.457
same,glycan array binding signal (z-score),[12],-0.36
same,glycan array binding signal (z-score),[13],-0.369
same,glycan array binding signal (z-score),[14],0.33
same,glycan array binding signal (z-score),[15],-0.205
same,glycan array binding signal (z-score),[16],0.605
same,glycan array binding signal (z-score),[17],0.326
same,glycan array binding signal (z-score),[18],0.11
same,glycan array binding signal (z-score),[19],0.394
same,glycan array binding signal (z-score),[20],15.8
same,glycan array binding signal (z-score),[21],-0.545
same,glycan array binding signal (z-score),Neu5Ac(b2-6)GalNAc,-0.648
same,glycan array binding signal (z-score),[22],0.053
same,glycan array binding signal (z-score),[23],-0.407
same,glycan array binding signal (z-score),[24],-0.23
same,glycan array binding signal (z-score),[25],0.148
same,glycan array binding signal (z-score),[26],-0.435
same,glycan array binding signal (z-score),Neu5Gc(a2-3)Gal(b1-4)Glc,0.697
same,glycan array binding signal (z-score),[27],-0.782
same,glycan array binding signal (z-score),[28],0.994
same,glycan array binding signal (z-score),[29],0.311
same,glycan array binding signal (z-score),[30],-0.915
same,glycan array binding signal (z-score),Neu5Gc(a2-6)GalNAc,-0.558
same,glycan array binding signal (z-score),[31],-0.605
same,glycan array binding signal (z-score),[32],-0.496
same,glycan array binding signal (z-score),[33],-0.032
